Laboratory results taken from PubChem BioAssay (NCI).
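Protocol summary: plate cells (96-well), add compound at 5 concentrations, incubate 48 h, interpolate endpoints linearly. The concentration for 50% growth inhibition is given as GI50. TGI denotes the concentration required for complete inhibition of growth.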

These molecules were tested on NCI-H322M lung (assay: NCI tumour cell line growth inhibition, 48 h).
`Cc1ccc(-c2ccc(SCC(=O)Nc3ccc(S(N)(=O)=O)cc3Br)nn2)cc1` gave a GI50 of 14.2 µM and a TGI of 36 µM. Molecule `Cc1cc2nc3c4ccccc4n(CC4=NCCN4)c3nc2cc1C` has a GI50 of 4.29 µM and a TGI of 16.4 µM. `CC[C@@]12CC(C(=O)OC)=C3Nc4cc5c(cc4[C@@]34CCN(C[C@H]3O[C@H]31)[C@@H]24)[C@@H]1[C@H](O5)[C@@H](O)[C@@]2(CC)CC(C(=O)OC)=C3Nc4cc(O)ccc4[C@@]34CCN1[C@@H]24` was tested, and the GI50 was 0.205 µM and the TGI was 6.82 µM. In the case of `CCC(C)(C)c1ccc(OCCCCCCN2CCN(c3ccncc3)CC2)cc1`, the GI50 is reported as 10.7 µM and the TGI is reported as 22.6 µM.
